The subject of this series is ATP. The series can be described thus: switch fluorescence ratio, 500 uM ATP over buffer (Cy3 cluster intensity, sum of 5 cycles each) (fold (ratio)); higher = stronger signal-on switching upon ATP binding; sequences stand for … in TCGTCGGCAGCGTCAGATGTGTATAAGAGACAGTTTTTTTTTTTTTTTTTTTTTTTTT…TC. To be noted: aptamer strand: ATP DNA aptamer (quencher-CACCTGGGGGAGTATTGCGGAGGAAGG + anchor), 100 nM annealed; ATP concentration: 500 uM; one replicate. Put shortly:
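After annealing to 100 nM quencher-labelled ATP aptamer, Cy3-labelled switching-strand clusters on a modified Illumina MiSeq flow-cell were imaged in selection buffer. A second image followed after 15 min with 500 uM ATP at 22 °C, and five such buffer/ATP cycles were done, each separated by NaOH stripping and re-annealing. The fluorescence ratio, averaged per switch-domain sequence, is summed target-cycle over summed buffer-cycle Cy3 intensity per cluster, with clusters outside 100-1000 RFU excluded.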

Values marked as one replicate rest on one cluster of the flow cell; about a third of the high ones do not repeat.
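Further: ATP exposure 15 min at 22 °C before imaging.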

Regarding AGAGACGCTG, the switch fluorescence ratio came out at 0.991.

For GCCCGGACTA, the switch fluorescence ratio stood at 1.03.

Consider TATCTTACGT, for which the switch fluorescence ratio came out at 1.

Take TGGCACGTGG: the switch fluorescence ratio was 0.991.

On to AGGGACGTCG, for which the switch fluorescence ratio worked out at 0.975.

In the case of ACAGTTCGGC, the switch fluorescence ratio worked out at 1.03.

For TTAAAGCCCC, the switch fluorescence ratio was determined as 1.11.

CCGAACATAA: the switch fluorescence ratio was found to be 3.69.

Take GAGCCGAGGG: the switch fluorescence ratio amounted to 0.963.

Take GTCAGGCAGG: the switch fluorescence ratio was 1.02.

With GTTGGCATAC, the switch fluorescence ratio was 2.

ATTATCTATC: the switch fluorescence ratio came to 1.01.

Take TTCATAATCT: the switch fluorescence ratio stood at 1.01.

Take AAGACAGAAC: the switch fluorescence ratio is 1.07.

For GGTAGACTCC, the switch fluorescence ratio worked out at 1.12.

For CCCTAGGCCA, the switch fluorescence ratio was 1.04.

As for TTCTGGTTCG, the switch fluorescence ratio is 0.959.

Regarding ACATCTCGAC, the switch fluorescence ratio amounted to 0.998.

As to TGATGTGCCT, the switch fluorescence ratio stood at 1.05.

Take TAGTGTGACA: the switch fluorescence ratio is 1.01.

Turning to GCTATTCTAT, the switch fluorescence ratio came out at 1.06.

As for CGAGTCTGGG, the switch fluorescence ratio was found to be 1.02.

Turning to CGGATAGCGC, the switch fluorescence ratio was 0.952.

Consider GAGAGGTCT, for which the switch fluorescence ratio was determined as 1.04.

TATTGAACCG: the switch fluorescence ratio was 0.998.

In the case of GCGGATAGGC, the switch fluorescence ratio turned out to be 1.01.

As for TGTATTTGGA, the switch fluorescence ratio is 1.02.

Turning to GTTCGGCTA, the switch fluorescence ratio came out at 0.995.

On to GGTAAGCCGG, for which the switch fluorescence ratio is 1.

Regarding GTTGCCTGAA, the switch fluorescence ratio came to 1.

On to TAATGTGAGC, for which the switch fluorescence ratio stood at 1.01.

In the case of GGACTGTTGC, the switch fluorescence ratio came to 1.03.

Take CTACCATCTC: the switch fluorescence ratio amounted to 1.07.

Turning to CGGCATCTTC, the switch fluorescence ratio was 1.01.

Regarding GGCGCTAAAC, the switch fluorescence ratio was 1.12.

As to ACTGCGTG, the switch fluorescence ratio was 0.973.

Regarding AATGAGTAT, the switch fluorescence ratio came to 1.01.

For ATACAAAGGA, the switch fluorescence ratio amounted to 1.03.

For the sequence AGCGGAGGCT, the switch fluorescence ratio stood at 0.91.

CAATTAGGT: the switch fluorescence ratio was 1.03.

As to ACGGCCATTG, the switch fluorescence ratio worked out at 1.04.

With ATGGACAATT, the switch fluorescence ratio worked out at 0.963.

Regarding AAGTTCTTCC, the switch fluorescence ratio turned out to be 1.85.

For the sequence TAATAAACAG, the switch fluorescence ratio amounted to 1.04.

Consider CTTTGGAAAA, for which the switch fluorescence ratio turned out to be 1.02.

Take CGCAGCCCCG: the switch fluorescence ratio worked out at 1.2.

As for ACAATTATGG, the switch fluorescence ratio was found to be 1.

Take ATTGGATTCT: the switch fluorescence ratio was 0.962.

On to TCGGTTTCTC, for which the switch fluorescence ratio amounted to 0.993.

As to AGGTCTTGG, the switch fluorescence ratio was determined as 1.03.

GGTCGATCTG: the switch fluorescence ratio was determined as 0.988.

As for CTACACTTAG, the switch fluorescence ratio amounted to 1.05.

Take CCGTAGGAGT: the switch fluorescence ratio worked out at 1.03.

As to AAAAGGCGT, the switch fluorescence ratio is 1.01.

For ATGTCTTTTT, the switch fluorescence ratio turned out to be 0.939.

AACCGCTGAA: the switch fluorescence ratio was found to be 1.13.

On to CCAAGTTCTT, for which the switch fluorescence ratio was determined as 0.992.

Regarding AACTCTGTAC, the switch fluorescence ratio was determined as 1.16.

As to ATGTATGGGG, the switch fluorescence ratio was 0.927.

Regarding CTCTGGATGC, the switch fluorescence ratio amounted to 2.23.

AAGGGTGAAT: the switch fluorescence ratio was found to be 0.989.

With TGACGCCCGG, the switch fluorescence ratio came to 1.02.

For the sequence CGTGGACGGT, the switch fluorescence ratio is 0.991.

For the sequence AGCAACGACC, the switch fluorescence ratio is 4.86.

For the sequence GACTTATGCG, the switch fluorescence ratio is 1.

On to CACTAGTGT, for which the switch fluorescence ratio was determined as 0.991.

For the sequence CTGGGAGTAT, the switch fluorescence ratio was found to be 1.03.

Take AGAACTGCGG: the switch fluorescence ratio turned out to be 1.03.

As for TCGCCTGAAA, the switch fluorescence ratio turned out to be 1.01.

Take GCTGGGGAGA: the switch fluorescence ratio is 1.04.

With TTCTTTATA, the switch fluorescence ratio was found to be 0.983.

Take TGTCGGTACC: the switch fluorescence ratio turned out to be 0.984.

Regarding ACCAATGGAG, the switch fluorescence ratio is 1.04.

For AACGTTCTTG, the switch fluorescence ratio is 1.02.

TCGTTACTCT: the switch fluorescence ratio was 0.988.

In the case of GCGAGCTGTT, the switch fluorescence ratio is 1.03.

For TCGTCGGTAG, the switch fluorescence ratio came to 0.989.

On to TCCGACATAA, for which the switch fluorescence ratio amounted to 5.84.

As to TTTCATTCGC, the switch fluorescence ratio came to 1.61.

For the sequence TTAAACAATG, the switch fluorescence ratio turned out to be 1.01.

With TAGGTTTGAG, the switch fluorescence ratio was 1.01.

Turning to TTGCCAACAT, the switch fluorescence ratio is 1.03.

For the sequence TGTAGGTGTA, the switch fluorescence ratio was 1.01.

Consider TACTTCGTAG, for which the switch fluorescence ratio turned out to be 1.

As for AGTATTAAGA, the switch fluorescence ratio was 0.977.

Consider GGTAGTGCTT, for which the switch fluorescence ratio is 1.

Take GTCAGATCTT: the switch fluorescence ratio was found to be 0.99.

In the case of GAGGATGTTC, the switch fluorescence ratio was found to be 0.966.

For the sequence TTTGAATCTG, the switch fluorescence ratio came out at 1.01.

Consider GGGCAGAGCG, for which the switch fluorescence ratio worked out at 0.967.

Regarding ACCAAAAG, the switch fluorescence ratio came out at 1.01.

TAGCCGACG: the switch fluorescence ratio worked out at 1.06.

Turning to CACATGCATA, the switch fluorescence ratio turned out to be 1.09.

Regarding AGGTTGCGCT, the switch fluorescence ratio is 0.99.

As for TTATATGTCG, the switch fluorescence ratio was determined as 1.06.

Take CCCGGGGATC: the switch fluorescence ratio is 1.04.

As for GGAGTTAATG, the switch fluorescence ratio was 0.987.

With GGATGGCAGA, the switch fluorescence ratio turned out to be 1.05.

With AAACCCTTGC, the switch fluorescence ratio was 2.14.

GCCTTAGCCC: the switch fluorescence ratio is 1.01.

Consider CGGGACCATT, for which the switch fluorescence ratio was 1.03.

For ATTCGCTCGA, the switch fluorescence ratio is 1.03.

As for TCCATGATTT, the switch fluorescence ratio was 1.01.

As for GTGTATACTG, the switch fluorescence ratio was 0.988.

Turning to GATAGTAGAA, the switch fluorescence ratio worked out at 0.981.

CAGTATCCGT: the switch fluorescence ratio came to 1.02.

As for AGTTCTCGAA, the switch fluorescence ratio was 1.

Regarding GGGATGACTT, the switch fluorescence ratio turned out to be 1.01.

TCTTTGCCCA: the switch fluorescence ratio is 1.27.

Consider TTCTCACGGA, for which the switch fluorescence ratio amounted to 1.04.

On to TCTTGTGAGC, for which the switch fluorescence ratio worked out at 1.03.

In the case of ACTGCCCACG, the switch fluorescence ratio turned out to be 1.2.

As for CCGGGTACAT, the switch fluorescence ratio worked out at 1.08.

For the sequence TGCTGTTCGC, the switch fluorescence ratio is 0.961.

For the sequence GCCCCTCTTG, the switch fluorescence ratio stood at 1.03.

For the sequence ACCATGGCAG, the switch fluorescence ratio is 1.03.

Consider GGGGAAACCG, for which the switch fluorescence ratio is 1.08.

With CAATTTTGCG, the switch fluorescence ratio was 0.955.

GACATAAGCC: the switch fluorescence ratio came out at 0.981.

For the sequence ATGTAGAAT, the switch fluorescence ratio came to 1.02.

Values taken from the supplement of paper PMC10126150.
